Data published in the supplement of paper PMC10338343.
± gives the standard deviation. Only a part is listed here, and it is no random draw.

System: MIWI (PIWIL1) piRISC loaded with L1MC piRNA (30 nt)
Assay: pre-steady-state target cleavage rate (min^-1); MIWI and MILI are mouse PIWI proteins and EfPiwi is from a freshwater sponge; tags in brackets are library labels; higher = faster piRNA-guided slicing of the target
Conditions: guide: L1MC piRNA 5'p-UAACUAAAUACUAUGCAAGCUGUAGGUCCU; auxiliary factor: 500 nM mouse GTSF1
Protocol: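 Cleave-'n-Seq: a library of target RNAs (target site embedded in constant flanks, ACAGCATTCCGCGTTAGTGATATCCG... 5' flank; DNA-blocked outside the site) at 0.1 nM was incubated with 1 nM active mouse MILI or MIWI piRISC (synthetic 5'-monophosphorylated piRNA guide) with or without 500 nM mouse GTSF1 at 33 °C for 1 min to 16 h. Uncleaved targets were sequenced and normalised to non-target controls, and the pooled three trials were fitted to a burst-and-steady-state model to give the pre-steady-state cleavage rate (min^-1; k3 is constrained to at most 1e-4). Sequence is the target site only; target names encode pairing extent (gX:gY) and contiguous / 1-mismatch / 2-mismatch / bulge geometry. Fits with R² ≤ 0 are excluded.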

| Sequence | pre-steady-state target cleavage rate |
| --- | --- |
| UCCUGGAUGUCGAACGAUAGUAUUUAAGUUA | < 0.0001 |
| UCCUGCUACAGCUUGCAUUGUAUUAAGUUA | 0.502 ± 0.038 |
| UCCACCUACAGCUAGCAUAGUAUUUAGAUA | 0.33 ± 0.049 |
| UCCUGGAUGUCGUUGCAUAGUAUUUCAGUUA | 0.00991 ± 0.0042 |
| UGGACGUACAGCUUGCAUAGUAUUUAGAAA | 0.41 ± 0.048 |
| UCCUGGAUGAGCUUGCAUAGUAUUUAGUCUA | 0.0551 ± 0.014 |
| UCCUGGAACAGCUUGCAUUGUAUAUAGUUA | 0.279 ± 0.024 |
| UCCUGGAACAGCUUGCAUAGUAUUUAGUUC [g2:g23:cont:t1C] | 0.368 ± 0.052 |
| UCCUGGAUGAGCUUGUAUAGUAUUUAGUUA | 0.931 ± 0.036 |
| UCCUGGUACAGGUUGCAUAGUAUUUAGUAA | 0.658 ± 0.076 |
| UCCUGGUACUGGUUGCAUAGUAUUUAGUUA | 0.241 ± 0.044 |
| AGGACCUACACGAUGCAUAGUAUUUUCAAA | 0.244 ± 0.042 |
| AGGACCUAGUCCUUGCAUAGUAUUUAGUAA | 0.568 ± 0.069 |
| UCCACCAACAGCUUGCAUACUAUUUAGUUA | 0.359 ± 0.02 |
| UCCUGGAUGUGGUUGCAUAGUAUUAAGUUA | 0.0068 ± 0.0047 |
| UCGACCUACAGCUUGACAUAGUAUUUAGUUA | 0.952 ± 0.072 |
| UCCACCUACAGCUUGCAUAGUUUUUAGAUA | 0.16 ± 0.029 |
| UCCUCCUACAGCUAGCAUAGUAUAUAGUUA | 0.365 ± 0.04 |
| UCGACCUACAGCUAGCAUAGUAUUUAGAUA | 0.513 ± 0.033 |
| ACGACCUACAGCUUGCAUAGUAUAUAGUUA | 0.91 ± 0.04 |
| UCCUCCUACUCGUUGCAUAGUAUUUACAAA | 0.127 ± 0.022 |
| UCGACCUACAGCUUGCAUAGAAUUAAGUUA | 0.345 ± 0.038 |

Same assay, conditions: guide: L1MC piRNA 5'p-UAACUAAAUACUAUGCAAGCUGUAGGUCCU; auxiliary factor: none (no GTSF1)

| Sequence | pre-steady-state target cleavage rate |
| --- | --- |
| UCCUGCUACAGCUUGCAUUGUAUUAAGUUA | 0.00942 ± 0.0021 |
| UCCACCUACAGCUAGCAUAGUAUUUAGAUA | 0.00554 ± 0.0024 |
| UGGACGUACAGCUUGCAUAGUAUUUAGAAA | 0.0181 ± 0.0049 |
| UCCUGGAUGAGCUUGCAUAGUAUUUAGUCUA | 0.0123 ± 0.0039 |
| UCCUGGAACAGCUUGCAUUGUAUAUAGUUA | 0.0152 ± 0.0037 |
| UCCUGGAACAGCUUGCAUAGUAUUUAGUUC [g2:g23:cont:t1C] | 0.025 ± 0.0055 |
| UCCUGGAUGAGCUUGUAUAGUAUUUAGUUA | 0.0448 ± 0.01 |
| UCCUGGUACAGGUUGCAUAGUAUUUAGUAA | 0.0101 ± 0.0027 |
| UCCUGGUACUGGUUGCAUAGUAUUUAGUUA | 0.00872 ± 0.0025 |
| AGGACCUAGUCCUUGCAUAGUAUUUAGUAA | 0.0257 ± 0.0058 |
| UCCACCAACAGCUUGCAUACUAUUUAGUUA | 0.0316 ± 0.0059 |
| UCGACCUACAGCUUGACAUAGUAUUUAGUUA | 0.00438 ± 0.0026 |
| UCCACCUACAGCUUGCAUAGUUUUUAGAUA | 0.0077 ± 0.0023 |
| UCCUGGAUGUCGAACCAUGAGUAUUUAGUUA | < 0.0001 |
| UCCUCCUACAGCUAGCAUAGUAUAUAGUUA | 0.0079 ± 0.0024 |
| UCGACCUACAGCUAGCAUAGUAUUUAGAUA | 0.00963 ± 0.0037 |
| ACGACCUACAGCUUGCAUAGUAUAUAGUUA | 0.0788 ± 0.018 |
| UCGACCUACAGCUUGCAUAGAAUUAAGUUA | 0.00916 ± 0.0029 |
